# Data as given in the supplement of paper PMC11417369.
# ± gives the standard deviation of the averaged measurements. The list shows a part of the results.
# Test system: PfAP2-LT AP2 domain (GST-tagged)
# Assay: gcPBM binding intensity (ln(normalized median fluorescence intensity)); higher = stronger DNA binding
# In short: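 Probes on an Agilent 4 × 180k array were primer-extended, double-stranded and 36 bp long, taken from intergenic genomic regions, with negative controls added. GST-tagged P. falciparum DNA-binding domains from E. coli, about 25 μg on average, were applied to the array for 1 h in 1× PBS containing 1% milk, 0.2 mg/ml BSA, 0.5% salmon testes DNA and 0.03% Triton X-100. Binding intensity, obtained after Alexa488 anti-GST antibody detection and a 488 nm scan, is the highest Masliner-normalised natural-log median intensity across replicate spots of either probe orientation.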
row,Sequence,gcPBM binding intensity (ln)
1,AAAAAATATATATATATATATATGTAATATTTTTTT [XGTACX_negctrl_site439],8.79 ± 0.32
2,AAAACTATAAAAATTTTACACACTGTTTTTAAATAA [CACACA_site3667],8.54 ± 0.4
3,TATATTATAATATTCACACACTAACGTAAATCATTG [CACACA_site7318],8.93 ± 0.46
4,ATAAAAAAAGATGAACGTACATATATTTTAAAAATC [XGTACX_site5950],8.79 ± 0.51
5,ACAATATGCAAAAAGTGTACACATTCATTTATATAA [XGTACX_site1061],9.03 ± 0.46
6,AATATACAAATAAAGGTGCGAGATATTTTTACTTTT,8.76 ± 0.48
7,TATTAAATATATATTACATGCAAAAAAAAAAAACAA [TGCATGCA_site705],8.71 ± 0.5
8,GTAAATATTTGTTGGGTGCTATCAATTATTTCAAAG,8.64 ± 0.35
9,ATATAAAATATGTATGAGGAATAAAATTAAAAAAAA [XGTACX_negctrl_site173],8.81 ± 0.56
10,TTTTTTTTGAAGAATACATGCATATTTTCTATATTC [TGCATGCA_site43],8.62 ± 0.52
11,CGGCACATTCTATATACACACATATAAATATATACA [CACACA_site566],9.03 ± 0.39
12,TACAATTCGTAATACACACACATATAAATAAATATT [CACACA_site7720],9.29 ± 0.28
13,TGCGGAAATAAGTGCACACATAGATATATGTATTTT [CACACA_site3689],9.26 ± 0.41
14,ATCTATATCTATAATACACACATCATAAAATATGTA [CACACA_site7230],8.87 ± 0.33
15,ATATTATATATGTATAGTACATATTATAAGAAAAAT [XGTACX_site3457],8.87 ± 0.65
16,ATATATATTAATAATGCATGTGATATAAATTAATAT [TGCATGCA_site930],8.87 ± 0.44
17,ATATGTATAAATATAAATATATATATATATATATAT [CACACA_negctrl_site705],9.37 ± 0.37
18,ATTTTATATATGTGTTGTACGGTGAACATTTTGATA [XGTACX_site6538],8.89 ± 0.47
19,ACGTTAATATCTACAAGTACCCACATTAACAGGAAA [XGTACX_site2616],8.8 ± 0.33

row,Sequence,gcPBM binding intensity (ln)
1,ATGATATGGATAAATACACACAATATAATAATGGGT [CACACA_site4905],9.27 ± 0.37
2,ATATCTTATATTATCACACACACACCCACAAAACAG [CACACA_site1464],9.92 ± 0.042
3,AAAAAAAACAGACACACACACATTCAATATAAAACA [CACACA_site41],9.86 ± 0.35
4,TATATAAACATCGGTAGTACACACATTCATGTATTT [XGTACX_site6443],9.12 ± 0.43
5,GGATCATTTTTAAAGGAACACACAAAAAAAATTATA [CACACA_site8381],8.71 ± 0.54
6,GTTCATAAAAATTTTTGTACCCATAAAATATTCCTC [XGTACX_site8611],8.57 ± 0.47
7,GTAGGTGTTTTTGGTTGTACATATAAATATATATAC [XGTACX_site3380],9.04 ± 0.23
8,TTTTTTTTTTTTAATTGTACTTATTAAAAAAAGCAA [XGTACX_site8713],7.94 ± 0.44
9,TTTCTTCTTCAATGTTGTACTTTTCTCTTTTCTTAA [XGTACX_site1017],8.76 ± 0.47
10,GATATATATGTTCACACACACATGGAAATATATATA [CACACA_site4371],9.38 ± 0.18
11,ATATCATAAAAAATGTGTACATATATGAACATATAA [XGTACX_site2239],8.82 ± 0.49
12,TTAAGATCCTAAAAAACACACAATTGCGAATAATAA [CACACA_site6005],8.84 ± 0.47
13,GGAAATTAACAGAACACAATGTAACAATTTCTAACA [CACACA_negctrl_site1250],8.85 ± 0.4
14,TATTTTCATTATACTACTTCGAAGATACCCTTTTTT [CACACA_negctrl_site256],8.78 ± 0.49
15,AGATAAATATATTGTAGTACAGGAGCATAAATATAT [XGTACX_site8267],8.98 ± 0.4
16,TATAAACATTAAAGGTGTACAATTTAATTTCAATTT [XGTACX_site2944],8.67 ± 0.4
17,GTTCTTCCTTGTAAATGTACAAATACAAAATGTTCC [XGTACX_site6738],8.71 ± 0.38
18,CATTATTCTTTTAATATACACACTTTGTCTTTTCGC [CACACA_site2762],9.07 ± 0.42
19,ATATTATTATATATAGTGCATATTATTATTTTTATT,8.74 ± 0.38

row,Sequence,gcPBM binding intensity (ln)
1,TCTCATAGTAAACACACACACACACCCACATATATA [CACACA_site5034],9.97 ± 0.071
2,CCTCATACGAAATATAAACACACATACAATAAATAA [CACACA_site8620],8.97 ± 0.36
3,TATGCACTTTAGGGCAGTACGTCAACATTATCTTTA [XGTACX_site3382],8.69 ± 0.42
4,ATTTTTTTCATAGACACACACAATATATCTGTTTCC [CACACA_site3023],9.49 ± 0.51
5,ATAAATTTTTTTTTTTTTTTTTTTTTTTTTTTTTTT [CACACA_negctrl_site508],8.64 ± 0.2
6,TATATTTATTATAACACACACATATAAATATTATAG [CACACA_site6726],8.97 ± 0.4
7,TGTTAAAATTATTTGGTGCACTTGTTTTACCTTATT,8.96 ± 0.49
8,TTTTTTTTTTTTCAATCACACATGTTTTAATTATTT [CACACA_site5532],8.69 ± 0.54
9,TGTACGTTTTATAACACACACACAAAAAAAAAAAAA [CACACA_site3875],9.14 ± 0.37
10,TCATTTCACAGACACACACACACAAGATATTTCCTT [CACACA_site7774],9.7 ± 0.25
11,TGTAATAATATTTATGTGCACATATATTAAACTATA [GTGCAC_site9584],8.73 ± 0.35
12,AAGATAAAATGATGCACACAAAAGGGTGTAATATAT [CACACA_site1706],9.35 ± 0.42
13,TCTTCTTTTTTTTTTTTGTATTATTATAAATATTAT [CACACA_negctrl_site1668],8.53 ± 0.6
14,GAAGTTTTCTTAAAGATGCACTTTTTAAAAATAAAA [GTGCAC_site9941],8.14 ± 0.44
15,TTTTTTTTTTTTAATGCACACAATATATAATATGTA [CACACA_site3694],8.78 ± 0.48
16,TTTTATATTTATTTTTGTACATAAATGATCTCAAAT [XGTACX_site7768],8.54 ± 0.48
17,TGTTTTTAAAAATATACACACACAGATATTATATAT [CACACA_site8162],9.09 ± 0.33
18,ATATATATATATTTATGTACGCATTTATAGACGTAG [XGTACX_site6031],8.8 ± 0.33
19,AAATATTATAATAATTGTACTATATATACAGTTATT [XGTACX_site1963],8.88 ± 0.39
